The record followed here is a collection of fitness landscapes (doi:10.1016/j.celrep.2020.107928).

The full ranking holds about 81,000 sequences; the median of “one-hybrid fitness for binding NBS DNA” is about -0.1, and the highest 2% start at about 0.36. Some of the results follow. Some results are limits rather than exact numbers.

B1: Caulobacter ParB omega fusion; a variant is named by its letters at X, in order, B8GW30 (parent)
chain: MESVVVGEPGMSEGRRGLGRGLSALLGEVDAAPAQAPGEQLGGSREAPIEILQRNPDQPRRTFREEDLEDLSNSIREKGVLQPILVRPSPDTAGEYQIVAGERAWRAAQRAGLKTVPIMVRELDDLAVLEIGIIENVQRADLNVLEEALSYKVLMEKFERTQENIAQTIGKSXSHVANXMRLLXLPDEVQSYLVSGELTAXHARAIAAAADPVALAKQIIEGGLSVRETEALARKAPNLSAGKSKGGRPPRVKDTDTQALESDLSSVLGLDVSIDHRGSTGTLTITYATLEQLDDLCNRLTRGI

The assay covers variants of B1. In words: one-hybrid fitness for binding NBS DNA (the Noc-binding site; scaled: cognate 1, non-cognate 0); higher = stronger binding. As to conditions: with NBS DNA site. In outline:
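On M9-minus-histidine containing 0.1 mM IPTG and 5 mM 3-AT, E. coli USO cells with a HIS3 reporter, site 19 bp from the promoter, grew 48 hours at 37°C to select Caulobacter ParB libraries randomised at four specificity codons. Plasmids from before and after were Illumina-sequenced, with three replicate libraries pooled and variants under 10 reads left out. Fitness is the log change in variant-to-wild-type read ratio, rescaled against cognate and non-cognate.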
Consider LEIR, for which the “one-hybrid fitness for binding NBS DNA” value was no more than 0.2. Regarding LQNC, the “one-hybrid fitness for binding NBS DNA” value was no more than 0.2. For the variant EHVS, the “one-hybrid fitness for binding NBS DNA” value is no more than 0.2.

As for LYYG, the “one-hybrid fitness for binding NBS DNA” value is no more than 0.2.

For SLPL, the “one-hybrid fitness for binding NBS DNA” value was no more than 0.2. As to RYCF, the “one-hybrid fitness for binding NBS DNA” value was no more than 0.2. Consider IRSV, for which the “one-hybrid fitness for binding NBS DNA” value was no more than 0.2. On to IGAG, for which the “one-hybrid fitness for binding NBS DNA” value is no more than 0.2. As to PKMC, the “one-hybrid fitness for binding NBS DNA” value was no more than 0.2.

For CFDG, the “one-hybrid fitness for binding NBS DNA” value is no more than 0.2. As to PESL, the “one-hybrid fitness for binding NBS DNA” value is no more than 0.2. RWEW: the “one-hybrid fitness for binding NBS DNA” value is no more than 0.2.

Take MRHT: the “one-hybrid fitness for binding NBS DNA” value was no more than 0.2.

Turning to TNHP, the “one-hybrid fitness for binding NBS DNA” value was no more than 0.2.

As for PCLW, the “one-hybrid fitness for binding NBS DNA” value was no more than 0.2. For the variant TMTI, the “one-hybrid fitness for binding NBS DNA” value is no more than 0.2. Turning to WMNG, the “one-hybrid fitness for binding NBS DNA” value was no more than 0.2. As for NNTE, the figure is no more than 0.2; as for RRLH, 0.365. As for YPAS, the “one-hybrid fitness for binding NBS DNA” value is no more than 0.2.

HNIG: the “one-hybrid fitness for binding NBS DNA” value was no more than 0.2. In the case of LPSD, the “one-hybrid fitness for binding NBS DNA” value is no more than 0.2.

Take DKHG: the “one-hybrid fitness for binding NBS DNA” value was no more than 0.2.

With FLKS, the “one-hybrid fitness for binding NBS DNA” value is no more than 0.2. For the variant SLTM, the “one-hybrid fitness for binding NBS DNA” value is no more than 0.2.

Turning to KNCI, the “one-hybrid fitness for binding NBS DNA” value is no more than 0.2. As for PDHD, the “one-hybrid fitness for binding NBS DNA” value is no more than 0.2. For the variant CNRR, the “one-hybrid fitness for binding NBS DNA” value is no more than 0.2. Take HTVE: the “one-hybrid fitness for binding NBS DNA” value was no more than 0.2.

Take RLFT: the “one-hybrid fitness for binding NBS DNA” value turned out to be 0.238. In the case of TVQT, the “one-hybrid fitness for binding NBS DNA” value is no more than 0.2.

On to HISV, for which the “one-hybrid fitness for binding NBS DNA” value is no more than 0.2.

IMRR: the “one-hybrid fitness for binding NBS DNA” value came out at 0.226. As to DFSR, the “one-hybrid fitness for binding NBS DNA” value is no more than 0.2.

With REDT, the “one-hybrid fitness for binding NBS DNA” value was no more than 0.2. Take CRRN: the “one-hybrid fitness for binding NBS DNA” value was no more than 0.2. On to RTTC, for which the “one-hybrid fitness for binding NBS DNA” value was no more than 0.2. On to CSCR, for which the “one-hybrid fitness for binding NBS DNA” value is no more than 0.2. For TNKF, the “one-hybrid fitness for binding NBS DNA” value is no more than 0.2. TPHW: the “one-hybrid fitness for binding NBS DNA” value was no more than 0.2. The figure for RVDY is no more than 0.2; for TFGT it is no more than 0.2; for DHGV it is no more than 0.2. Consider YTFY, for which the “one-hybrid fitness for binding NBS DNA” value was no more than 0.2. Take IDSN: the “one-hybrid fitness for binding NBS DNA” value is no more than 0.2. With VLSM, the “one-hybrid fitness for binding NBS DNA” value was no more than 0.2. As for LYPI, the “one-hybrid fitness for binding NBS DNA” value was no more than 0.2. As for PNYL, the figure is no more than 0.2.

For the variant KHTM, the “one-hybrid fitness for binding NBS DNA” value is no more than 0.2.

Turning to RRTR, the “one-hybrid fitness for binding NBS DNA” value came out at 0.75. Take WMLV: the “one-hybrid fitness for binding NBS DNA” value is no more than 0.2. For ISER, the “one-hybrid fitness for binding NBS DNA” value is no more than 0.2.

With TRSH, the “one-hybrid fitness for binding NBS DNA” value was no more than 0.2.

As for YGRT, the “one-hybrid fitness for binding NBS DNA” value is no more than 0.2. As for SFPF, the “one-hybrid fitness for binding NBS DNA” value was no more than 0.2. As for SMFS, the “one-hybrid fitness for binding NBS DNA” value was no more than 0.2.

For ACMS, the “one-hybrid fitness for binding NBS DNA” value was no more than 0.2. The figure for ENNE is no more than 0.2; for KIYL it is no more than 0.2. As for SSAH, the “one-hybrid fitness for binding NBS DNA” value was no more than 0.2. In the case of DGWA, the “one-hybrid fitness for binding NBS DNA” value is no more than 0.2. As for GAEG, the figure is no more than 0.2; as for GQPG, no more than 0.2; as for FLGT, no more than 0.2.

PMYG: the “one-hybrid fitness for binding NBS DNA” value is no more than 0.2. In the case of VRGR, the “one-hybrid fitness for binding NBS DNA” value is 0.307. The figure for AVDV is no more than 0.2. On to VFPS, for which the “one-hybrid fitness for binding NBS DNA” value is no more than 0.2. Turning to PPLY, the “one-hybrid fitness for binding NBS DNA” value was no more than 0.2. The figure for RSRW is no more than 0.2; for HLKT it is no more than 0.2. With PQLR, the “one-hybrid fitness for binding NBS DNA” value was no more than 0.2. DCYR: the “one-hybrid fitness for binding NBS DNA” value is no more than 0.2. As to LPEM, the “one-hybrid fitness for binding NBS DNA” value was no more than 0.2.

On to QKVI, for which the “one-hybrid fitness for binding NBS DNA” value was no more than 0.2. As for VYDG, the figure is no more than 0.2.

Regarding DIAA, the “one-hybrid fitness for binding NBS DNA” value was no more than 0.2.

In the case of AEVF, the “one-hybrid fitness for binding NBS DNA” value is no more than 0.2. As to NEYT, the “one-hybrid fitness for binding NBS DNA” value is no more than 0.2. For HWTM, the “one-hybrid fitness for binding NBS DNA” value is no more than 0.2. The figure for TWLG is no more than 0.2; for TTNY it is no more than 0.2. Take MNQS: the “one-hybrid fitness for binding NBS DNA” value was no more than 0.2. Turning to QHCF, the “one-hybrid fitness for binding NBS DNA” value is no more than 0.2. As for PENN, the figure is no more than 0.2; as for NHQS, no more than 0.2.

RPQY: the “one-hybrid fitness for binding NBS DNA” value is no more than 0.2. With TRPT, the “one-hybrid fitness for binding NBS DNA” value was no more than 0.2. As for LHSI, the “one-hybrid fitness for binding NBS DNA” value is no more than 0.2.

Turning to QYSD, the “one-hybrid fitness for binding NBS DNA” value was no more than 0.2.

As for QTPH, the “one-hybrid fitness for binding NBS DNA” value was no more than 0.2.

For the variant TNHN, the “one-hybrid fitness for binding NBS DNA” value is no more than 0.2. As for AYID, the figure is no more than 0.2; as for KGVS, no more than 0.2; as for VLFD, no more than 0.2. As for WEHP, the “one-hybrid fitness for binding NBS DNA” value was no more than 0.2. In the case of PRCG, the “one-hybrid fitness for binding NBS DNA” value is no more than 0.2. Turning to RLLF, the “one-hybrid fitness for binding NBS DNA” value was no more than 0.2. Regarding SQWD, the “one-hybrid fitness for binding NBS DNA” value was found to be 0.209. With DAGA, the “one-hybrid fitness for binding NBS DNA” value is no more than 0.2. RIEL: the “one-hybrid fitness for binding NBS DNA” value was no more than 0.2. Consider LQSS, for which the “one-hybrid fitness for binding NBS DNA” value is no more than 0.2.

For the variant HVQD, the “one-hybrid fitness for binding NBS DNA” value was no more than 0.2. Turning to INYL, the “one-hybrid fitness for binding NBS DNA” value was no more than 0.2. The figure for EDVS is no more than 0.2; for HGSR it is no more than 0.2; for PHND it is no more than 0.2. As for YRNS, the figure is no more than 0.2; as for SIAT, no more than 0.2; as for HTAL, no more than 0.2. In the case of GGNW, the “one-hybrid fitness for binding NBS DNA” value is no more than 0.2.

For the variant CIDR, the “one-hybrid fitness for binding NBS DNA” value was no more than 0.2.

Turning to GWLT, the “one-hybrid fitness for binding NBS DNA” value is no more than 0.2. Consider SWWR, for which the “one-hybrid fitness for binding NBS DNA” value was no more than 0.2. Turning to FNEG, the “one-hybrid fitness for binding NBS DNA” value was no more than 0.2. VPPM: the “one-hybrid fitness for binding NBS DNA” value was no more than 0.2. As for NATL, the figure is no more than 0.2; as for SATH, no more than 0.2. As to QNNF, the “one-hybrid fitness for binding NBS DNA” value is no more than 0.2. Take QADF: the “one-hybrid fitness for binding NBS DNA” value is no more than 0.2. For SYYR, the “one-hybrid fitness for binding NBS DNA” value was no more than 0.2. As to SGPN, the “one-hybrid fitness for binding NBS DNA” value is no more than 0.2. As for VRCT, the figure is 0.212; as for PEHA, no more than 0.2; as for EDSC, no more than 0.2. Regarding QQLQ, the “one-hybrid fitness for binding NBS DNA” value is no more than 0.2. Regarding QNEQ, the “one-hybrid fitness for binding NBS DNA” value is no more than 0.2. Consider LHYN, for which the “one-hybrid fitness for binding NBS DNA” value was no more than 0.2. With DWLT, the “one-hybrid fitness for binding NBS DNA” value is no more than 0.2. FAHL: the “one-hybrid fitness for binding NBS DNA” value is no more than 0.2. For IITR, the “one-hybrid fitness for binding NBS DNA” value was no more than 0.2. As for KVKL, the figure is no more than 0.2.

Take RRLF: the “one-hybrid fitness for binding NBS DNA” value was no more than 0.2. As for KGSG, the “one-hybrid fitness for binding NBS DNA” value was no more than 0.2.

Turning to PNHY, the “one-hybrid fitness for binding NBS DNA” value was no more than 0.2. Turning to KLYR, the “one-hybrid fitness for binding NBS DNA” value was no more than 0.2.

RWHP: the “one-hybrid fitness for binding NBS DNA” value is no more than 0.2. HAAE: the “one-hybrid fitness for binding NBS DNA” value was no more than 0.2. For the variant MEGR, the “one-hybrid fitness for binding NBS DNA” value was no more than 0.2.

For the variant LMFG, the “one-hybrid fitness for binding NBS DNA” value is no more than 0.2. For GLGS, the “one-hybrid fitness for binding NBS DNA” value is no more than 0.2. The figure for CSDT is no more than 0.2; for PQSF it is no more than 0.2; for KWAL it is no more than 0.2. As for HSCY, the figure is no more than 0.2.

Take RQLY: the “one-hybrid fitness for binding NBS DNA” value is no more than 0.2. On to PADC, for which the “one-hybrid fitness for binding NBS DNA” value is no more than 0.2.

On to QRCQ, for which the “one-hybrid fitness for binding NBS DNA” value was 0.382. As for RRKN, the “one-hybrid fitness for binding NBS DNA” value is 0.646. Regarding HLGA, the “one-hybrid fitness for binding NBS DNA” value was no more than 0.2. As for AGDV, the “one-hybrid fitness for binding NBS DNA” value is no more than 0.2. As for PDCS, the “one-hybrid fitness for binding NBS DNA” value was no more than 0.2.

For TPQA, the “one-hybrid fitness for binding NBS DNA” value is no more than 0.2.
